The list shows a part of the results. Values come from read counts of a selection and are noisy. Each score is taken over the longer molecules that contain the sequence shown.

Sequence of IMP3 RRM1-2 (chain, as listed by the source): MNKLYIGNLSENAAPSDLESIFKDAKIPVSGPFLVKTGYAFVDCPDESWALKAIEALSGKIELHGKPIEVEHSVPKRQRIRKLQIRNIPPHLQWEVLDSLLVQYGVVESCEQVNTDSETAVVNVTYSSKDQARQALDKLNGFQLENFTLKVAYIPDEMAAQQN

The subject of this assay is IMP3 RRM1-2. Kind of assay: 6-mer SELEX enrichment z-score vs GST control; IMP3 is the RNA-binding protein IGF2BP3; higher = more enriched by binding. Particulars: construct: RRM1-2 (1-163); SELEX round: R2. The protocol:
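SELEX-seq with GST-tagged IMP3 RRM1-2 (Met1-Asn163) and an N40 RNA pool, round 2. 6-mer enrichment z-score normalised to GST SELEX. RNA written as DNA (T = U).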
For the sequence TGCAGG, the “6-mer SELEX enrichment z-score” value was found to be 0.235.

Consider ATTCTG, for which the “6-mer SELEX enrichment z-score” value worked out at 0.283.

For the sequence ACCAGT, the “6-mer SELEX enrichment z-score” value amounted to 0.21.

Consider TTCTAG, for which the “6-mer SELEX enrichment z-score” value was 0.299.

CGCCGG: the “6-mer SELEX enrichment z-score” value was -0.271.

For GCTCGA, the “6-mer SELEX enrichment z-score” value was found to be 0.165.

Turning to CCTTGA, the “6-mer SELEX enrichment z-score” value was -0.567.

Take GTTCCA: the “6-mer SELEX enrichment z-score” value turned out to be 0.246.

For ATCAAC, the “6-mer SELEX enrichment z-score” value stood at 2.1.

In the case of GCAGCC, the “6-mer SELEX enrichment z-score” value was 0.227.

In the case of GTGATT, the “6-mer SELEX enrichment z-score” value was -0.05.

GCCAAC: the “6-mer SELEX enrichment z-score” value was determined as 0.035.

For CGGTTG, the “6-mer SELEX enrichment z-score” value came to 0.251.

Take ACTCCA: the “6-mer SELEX enrichment z-score” value was 0.011.

For AGTTAG, the “6-mer SELEX enrichment z-score” value worked out at 0.175.

On to CGATTT, for which the “6-mer SELEX enrichment z-score” value was -0.111.

As for GTGGGA, the “6-mer SELEX enrichment z-score” value was 0.054.

For the sequence GATGTG, the “6-mer SELEX enrichment z-score” value is -0.32.

As to AGCCGA, the “6-mer SELEX enrichment z-score” value was -1.09.

For the sequence GCTTCT, the “6-mer SELEX enrichment z-score” value was 0.459.

As to CCTGAA, the “6-mer SELEX enrichment z-score” value was -1.18.

GTTCGA: the “6-mer SELEX enrichment z-score” value was -0.025.

Regarding ACTCAC, the “6-mer SELEX enrichment z-score” value was determined as 1.2.

On to TCCTTG, for which the “6-mer SELEX enrichment z-score” value came to 0.183.

For GGTTAG, the “6-mer SELEX enrichment z-score” value worked out at 0.331.

On to TGGCAT, for which the “6-mer SELEX enrichment z-score” value was 0.675.

Take CCCTTT: the “6-mer SELEX enrichment z-score” value is -0.067.

As to ATTTGG, the “6-mer SELEX enrichment z-score” value was found to be 0.306.

Consider CTAGTG, for which the “6-mer SELEX enrichment z-score” value came to 0.012.

For the sequence GTTAAC, the “6-mer SELEX enrichment z-score” value was -0.124.

For GGGGCA, the “6-mer SELEX enrichment z-score” value was found to be 0.159.

Take AAAATT: the “6-mer SELEX enrichment z-score” value is -1.31.

As for CAATAC, the “6-mer SELEX enrichment z-score” value amounted to 0.847.

As to ACGACG, the “6-mer SELEX enrichment z-score” value was -1.01.

CCGGAG: the “6-mer SELEX enrichment z-score” value is -0.952.

In the case of ATTTCA, the “6-mer SELEX enrichment z-score” value stood at 1.24.

Turning to CCAAAC, the “6-mer SELEX enrichment z-score” value is -0.74.

As for TCGATC, the “6-mer SELEX enrichment z-score” value came out at 0.364.

As for CAAACC, the “6-mer SELEX enrichment z-score” value was -0.181.

On to CAGTGG, for which the “6-mer SELEX enrichment z-score” value stood at 0.297.

(Values after the supplement of paper PMC6531468.)
